From the supplement of paper PMC3334620
The full ranking holds about 33,000 sequences; the median of “E-score (-0.5 to 0.5)” is about -0.013, and the highest 2% start at about 0.3. This is one part of the list.

target: T1, Msn1 (UniProt P22148); assay: PBM E-score (8-mer binding enrichment) (E-score (-0.5 to 0.5)); higher = stronger / more preferred TF binding; most listed sequences are background and not binding sites; conditions: protein concentration: 200 nM; construct: GST-full length
T1 sequence: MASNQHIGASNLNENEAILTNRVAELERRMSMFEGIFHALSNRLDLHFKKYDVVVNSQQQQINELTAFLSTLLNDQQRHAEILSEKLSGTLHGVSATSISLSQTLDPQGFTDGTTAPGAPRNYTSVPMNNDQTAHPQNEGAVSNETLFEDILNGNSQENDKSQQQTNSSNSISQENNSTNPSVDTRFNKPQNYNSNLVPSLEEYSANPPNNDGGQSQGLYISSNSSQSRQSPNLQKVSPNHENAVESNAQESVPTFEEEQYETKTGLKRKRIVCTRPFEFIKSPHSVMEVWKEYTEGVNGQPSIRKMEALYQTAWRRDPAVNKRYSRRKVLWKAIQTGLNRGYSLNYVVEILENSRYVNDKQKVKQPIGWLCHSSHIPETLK
Outline: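 Each ungapped eight-base word and its reverse complement, pooled, received an E-score from the Universal PBM Analysis Suite. Underlying scans, normalised with masliner, recorded fluorescent anti-GST bound to GST-tagged yeast transcription factors. These were applied at about 100-200 nM to universal all-10-mer Agilent arrays double-stranded by primer extension.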

Row | Sequence | PBM E-score
1 | GAATGGTC | -0.135
2 | ACAATGGT | -0.147
3 | CTTCGGGA | 0.15
4 | CCGCGTGA | 0.0677
5 | TCAAGCAA | -0.0994
6 | AGCCGACG | 0.0208
7 | CGAGATCA | 0.0442
8 | CATTGCCA | 0.104
9 | CCACTCCA | -0.176
10 | ACTTCGTG | 0.00042
11 | ACGCGGCT | -0.0473
12 | AGCTACAT | 0.0298
13 | CGAAAATC | 0.165
14 | TATCGTCA | 0.108
15 | AGTACCTG | -0.0335
16 | CCATTCTA | 0.0414
17 | GGGTACCC | -0.357
18 | CAAAGCCA | -0.0655
19 | CATACATC | 0.151
20 | AATACTGG | -0.0248
21 | CCCAGCAC | -0.148
22 | GCGTCCTA | 0.168
23 | CCCGGCCG | -0.148
24 | CGTAAAGA | 0.0242
25 | CTGCTAGA | 0.065

Row | Sequence | PBM E-score
26 | CAGACCCA | -0.137
27 | CATATCAG | 0.025
28 | GATTGCGA | 0.0849
29 | CGGTTGAC | -0.186
30 | AGATTCTG | -0.0613
31 | ACGCCAGA | -0.16
32 | CAAGCTAA | -0.027
33 | AGACTCCG | -0.0253
34 | CGATTGAC | 0.151
35 | ATACGGGA | 0.0286
36 | ACCCGACA | 0.149
37 | CCTATATA | 0.138
38 | CAACTTCG | -0.0475
39 | AATATTTG | 0.239
40 | AGCGTCCA | -0.0794
41 | CTTCCTGA | -0.0052
42 | CGCGGTGC | -0.123
43 | ATCCACAT | 0.0887
44 | AGGGGAGG | -0.037
45 | AAACAGTG | 0.0913
46 | CATGTAGA | 0.077
47 | ATCTGCAC | -0.0895
48 | GCTGGATA | 0.0185
49 | GACTTTCC | 0.195
50 | AGACGATG | -0.0295

Row | Sequence | PBM E-score
51 | ATCCGACA | 0.128
52 | CACCACAC | -0.137
53 | CGTGACAG | 0.0649
54 | CCGAAGCA | 0.149
55 | CAACATTG | 0.0465
56 | AGCGCGGG | -0.0804
57 | AACCGTCC | -0.0955
58 | ATTAAGAG | -0.081
59 | ACCAGCCC | -0.18
60 | GATGCCAC | -0.0119
61 | ACCTTAAC | 0.123
62 | AGTTTCGC | 0.0708
63 | GGTGTATA | -0.194
64 | GCGGTGCC | -0.202
65 | GATGCCTA | -0.027
66 | CACTAGTA | 0.138
67 | GACTTACA | 0.181
68 | AACAGATA | 0.139
69 | ACCTATAA | 0.0364
70 | ATCGAGTC | -0.0128
71 | CTGCTGTC | -0.0317
72 | CAGTGGGG | -0.302
73 | GAGGAAAC | 0.0548
74 | ACCAGGCC | 0.0828
75 | TAAATCGA | 0.138

Row | Sequence | PBM E-score
76 | CCCGCTAA | -0.252
77 | AACGCACT | -0.0232
78 | CTGGGACA | 0.444
79 | CCGGCTAA | 0.0358
80 | GTAGCGCA | -0.107
81 | GCGTATTA | 0.0669
82 | TAGCGCAA | 0.0683
83 | AAACTTCT | 0.227
84 | GGCAAGCC | -0.328
85 | AATTTGTG | 0.186
86 | AAGGACAA | 0.485
87 | ACTCCCTA | -0.121
88 | CGGCTTAG | -0.159
89 | CCTAACAC | 0.00579
90 | ACGGTCTC | -0.067
91 | AGTACGCC | -0.167
92 | GGGTAGTA | -0.0745
93 | CACATCAG | -0.119
94 | ATTAGTCG | 0.16
95 | GAAGTCCA | 0.212
96 | GCATTTAA | 0.0963
97 | CCATCGCG | 0.0581
98 | CCGAGCAC | -0.0129
99 | AGAAGGCA | -0.258
100 | CACCCGAA | 0.144

Row | Sequence | PBM E-score
101 | AATGCCGA | 0.0819
102 | GTCGTCGA | -0.042
103 | AGCGCCGC | -0.145
104 | AGCAGAGA | -0.216
105 | GGCGAAAA | 0.24
106 | ACGAAATG | 0.0933
107 | ACGTAGGA | 0.151
108 | CTTTAGAA | 0.121
109 | ACGCTGTA | 0.0519
110 | CTATAATC | 0.128
111 | CTGCCGCA | -0.0788
112 | TAACTATA | -0.00892
113 | GCGGCAGC | -0.165
114 | GCCCAGGA | -0.164
115 | AATCGAAT | 0.047
116 | GACTAGCA | -0.0853
117 | CGCACACC | -0.0652
118 | ACGGCTTA | 0.0134
119 | ATCTACCG | 0.0459
120 | AACTAGAG | -0.0134
121 | TGACTGAA | -0.0539
122 | AGACACGA | 0.158
123 | GGGATGCA | -0.278
124 | ACAATCTA | 0.0825
125 | GCTTAGCC | -0.241

Row | Sequence | PBM E-score
126 | CATCTGGG | 0.119
127 | GATACTCA | -0.00561
128 | GACTCGCC | -0.0958
129 | CCGAGTGA | 0.113
130 | ACTAGAGG | -0.281
131 | ATCACTCA | -0.0853
132 | GGGAGCGA | -0.219
133 | GATCTAAA | -0.0173
134 | TTAGGCAA | -0.0396
135 | CCATACGG | -0.0434
136 | ACAACACG | -0.00132
137 | AGATTTAT | 0.0411
138 | GGGGACGA | -0.0119
139 | AACATAAA | 0.0678
140 | AATTACAA | -0.00201
141 | CTGAAAAC | 0.101
142 | CATAAATA | 0.109
143 | CGGTGTAC | 0.084
144 | GAGGTATC | -0.0331
145 | TCGAACGA | 0.0621
146 | ATACTGAC | 0.184
147 | CCAAATAG | -0.0591
148 | ACGTGGAG | -0.101
149 | CCGGCTAC | -0.142
150 | AGACTGTC | -0.057

Row | Sequence | PBM E-score
151 | CCCACGAG | -0.172
152 | CTTGCCTC | -0.0298
153 | ATGCCCTA | -0.185
154 | CCTCTTCG | -0.142
155 | CGCCCCAC | -0.383
156 | AACGAGCC | -0.0957
157 | AGGACTCC | 0.00229
158 | AGCTTGCC | -0.108
159 | GCGATGGA | 0.117
160 | AGTATATA | 0.258
161 | CCACTAGA | -0.3
162 | ACCACCTA | -0.169
163 | ATCCCTAG | 0.0688
164 | CACTGAAC | 0.0298
165 | ACGCGGTC | 0.0452
166 | CTGACGCC | -0.121
167 | AAAGGTAG | -0.0444
168 | CTGCCCCC | -0.386
169 | ACGCAACC | 0.117
170 | ACTCATAA | -0.0152
171 | AGCTCATG | -0.152
172 | CTCTAAAG | -0.158
